Assay results: the supplement of paper PMC4604168 (melanoma cell lines)
Some of the results follow. Repeats are few or missing, and single values can be far off.

tested on: WM1716; experiment: cell count relative to DMSO control; melanoma cells; higher = more viable cells; conditions: library dose: standard library concentration; 72 h
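Note: cells treated in 1,536-well plates, then fixed and DAPI-stained, with nuclei counted from automated high-throughput microscope images.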

| Compound | cell count [%] |
| --- | --- |
| O=C(Nc1cc(C(F)(F)F)cc(C(F)(F)F)c1)c1cc(Cl)ccc1O + COc1ccc(COc2ccc(Cc3cnc(N)nc3N)cc2OC)cc1 [GW2580] (first compound 0.08 µM, partner dose 5 µM) | 102 |
| O=C(Nc1cc(C(F)(F)F)cc(C(F)(F)F)c1)c1cc(Cl)ccc1O + Cc1cc([N+](=O)[O-])ccc1NS(=O)(=O)c1cc(Cl)ccc1Cl [FH535] (first compound 0.08 µM, partner dose 5 µM) | 85.5 |
| O=C(Nc1cc(C(F)(F)F)cc(C(F)(F)F)c1)c1cc(Cl)ccc1O + Cn1cc(/C=C2\C(=O)Nc3cccnc32)c2ccccc21 [GW441756] (first compound 0.08 µM, partner dose 2 µM) | 93.3 |
| O=C(O)c1ccc2c(c1)nc(Nc1cccc(Cl)c1)c1ccncc12 + CCc1ccc(CCOc2ccc(CC3SC(=O)NC3=O)cc2)nc1 [pioglitazone] (first compound 2 µM, partner dose 10 µM) | 102 |
| Cc1cc(N2CCOCC2)cc2[nH]c(-c3c(NC[C@@H](O)c4cccc(Cl)c4)cc[nH]c3=O)nc12 + CC(C)CCN1c2nc(Nc3cc(F)c(O)c(F)c3)ncc2N(C)C(=O)C1C [BID1870] (first compound 1 µM, partner dose 1 µM) | 97.9 |
| O=C(Nc1ccccc1)c1cc([N+](=O)[O-])ccc1Cl + COc1ccc(-c2ccc3c(N4CCOCC4)nc(N4C[C@@H](C)O[C@@H](C)C4)nc3n2)cc1CO [KU0063794] (first compound 10 µM, partner dose 0.1 µM) | 97.4 |
| O=C(O)c1ccc2c(c1)nc(Nc1cccc(Cl)c1)c1ccncc12 + O=c1cc(-c2cccc3c2Sc2ccccc2S3)oc(N2CCOCC2)c1 [KU55933] (first compound 2 µM, partner dose 5 µM) | 72.9 |
| O=C(O)c1ccc2c(c1)nc(Nc1cccc(Cl)c1)c1ccncc12 + c1cc(-c2cnn3cc(-c4ccc(OCCN5CCCCC5)cc4)cnc23)ccn1 [Dorsomorphin] (first compound 2 µM, partner dose 2 µM) | 79.1 |
| Cn1nnc2c(C(N)=O)ncn2c1=O [temozolomide] + Cc1cc([N+](=O)[O-])ccc1NS(=O)(=O)c1cc(Cl)ccc1Cl [FH535] (first compound 10 µM, partner dose 5 µM) | 59.4 |
| O=C(Nc1cc(C(F)(F)F)cc(C(F)(F)F)c1)c1cc(Cl)ccc1O + COc1ccc2c(c1)CCC1C2CCC2(C)C(NCCCCCCN3C(=O)C=CC3=O)CCC12 [U73122] (first compound 0.08 µM, partner dose 2 µM) | 122 |
| Cc1cc(N2CCOCC2)cc2[nH]c(-c3c(NC[C@@H](O)c4cccc(Cl)c4)cc[nH]c3=O)nc12 + Oc1nc(-c2ccc(C(F)(F)F)cc2)nc2c1CSCC2 [XAV939] (first compound 1 µM, partner dose 10 µM) | 78.3 |
| O=C(Nc1cc(C(F)(F)F)cc(C(F)(F)F)c1)c1cc(Cl)ccc1O + CC(=O)O[C@@]12CO[C@@H]1C[C@H](O)[C@@]1(C)C(=O)[C@H](O)C3=C(C)[C@@H](OC(=O)[C@H](O)[C@@H](NC(=O)OC(C)(C)C)c4ccccc4)C[C@@](O)([C@@H](OC(=O)c4ccccc4)[C@H]21)C3(C)C [Docetaxel] (first compound 0.08 µM, partner dose 0.0005 µM) | 43.2 |
| O=C(Nc1ccccc1)c1cc([N+](=O)[O-])ccc1Cl + O=S(=O)(c1ccccc1)N(CC(F)(F)F)c1ccc(C(O)(C(F)(F)F)C(F)(F)F)cc1 [T0901317] (first compound 10 µM, partner dose 7 µM) | 99.3 |
| O=C(Nc1cc(C(F)(F)F)cc(C(F)(F)F)c1)c1cc(Cl)ccc1O + CCc1ccc(CCOc2ccc(CC3SC(=O)NC3=O)cc2)nc1 [pioglitazone] (first compound 0.08 µM, partner dose 10 µM) | 105 |
| Cn1nnc2c(C(N)=O)ncn2c1=O [temozolomide] + Oc1nc(-c2ccc(C(F)(F)F)cc2)nc2c1CSCC2 [XAV939] (first compound 10 µM, partner dose 10 µM) | 50.6 |
| O=C(Nc1cc(C(F)(F)F)cc(C(F)(F)F)c1)c1cc(Cl)ccc1O + C[C@]1(c2nc3c(C(N)=O)cccc3[nH]2)CCCN1 [Veliparib] (first compound 0.08 µM, partner dose 7 µM) | 96.1 |
| O=C(O)c1ccc2c(c1)nc(Nc1cccc(Cl)c1)c1ccncc12 + O=C(Nc1ccccc1)c1cc([N+](=O)[O-])ccc1Cl [GW9662] (first compound 2 µM, partner dose 10 µM) | 82.1 |
| O=C(O)c1ccc2c(c1)nc(Nc1cccc(Cl)c1)c1ccncc12 + Cn1cc(/C=C2\C(=O)Nc3cccnc32)c2ccccc21 [GW441756] (first compound 2 µM, partner dose 2 µM) | 98.9 |
| O=C(O)[C@@H]1[O][Sb](=[O])([O][Sb]2(=[O])[O][C@H]([C@H](O)CO)[C@H](O)[C@H](C(=O)O)[O]2)[O][C@H]([C@H](O)CO)[C@@H]1O (some centres undefined) [stibogluconate] + COc1ccc2c(c1)CCC1C2CCC2(C)C(NCCCCCCN3C(=O)C=CC3=O)CCC12 [U73122] (first compound 10 µM, partner dose 2 µM) | 97.8 |
